# Experimental data reported in PubChem BioAssay (NCATS).
# “And” between values parts separate entries of the source, which are not always exact repeats. Equal entries are not always repeated. The shares of active, inactive and inconclusive entries below differ from those in the screen. For part of these data: Potencies beside an inconclusive call are fits to weak or partial responses and may not hold up. The source made the active and inactive calls. Unless noted, calls follow the shape of the dose curve; as a rule, active = well fitted curve in the direction sought with a large enough effect; inconclusive = small, poorly fitted or top-dose-only effect, or another doubt; inactive = no such curve, though single readings can be large; an effect the other way counts as inactive or inconclusive.
# What was measured:
# [1] = Cell Viability - BJ (AID 421; calls by dose curve;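 also: potency is read from the fitted curve at half-maximal effect; cells exposed to compound for 40 hours at 37 °C before readout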); conditions: BJ fibroblast viability, qHTS
# In short: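 Quantitative HTS: ATP depletion in BJ cells after 40 hr compound exposure in complete culture medium, detected with CellTiter-Glo; AC50 from standard Hill fits.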
# [2] = Cell Viability - Jurkat (AID 426;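 active = dose-dependent loss of cell ATP signal giving a full or clear fitted curve, ranked by lower potency value; inconclusive = weak partial curve or response only at the top dose; inactive = no loss of viability signal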; also: potency is read from the fitted curve at half-maximal effect); conditions: qHTS
# In short: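 Jurkat (Clone E6-1) cells, 5000/well in complete medium, exposed to compounds for 40 hr at 37C; intracellular ATP measured by CellTiter-Glo luminescence after 20 min at room temperature. AC50 from Hill fits.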
# [3] = Cell Viability - HepG2 (AID 433; calls by dose curve;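 also: potency is read from the fitted curve at half-maximal effect; potency for ATP loss meaning cytotoxicity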); conditions: qHTS
# In short: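 Cytotoxicity read as ATP loss (CellTiter-Glo luminescence) after 40 hr compound exposure of HepG2, 1500 cells/well, 37 °C. AC50 by Hill equation; 0% set by DMSO, 100% inhibition by 100 uM tamoxifen.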
# [4] = Cell Viability - MRC5 (AID 434; calls by dose curve;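 also: potency is read from the fitted curve at half-maximal effect; potency reflects cytotoxicity seen as loss of intracellular ATP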); conditions: MRC5 lung fibroblast viability, qHTS
# In short: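 MRC5 normal human lung fibroblasts (1500/well) were treated with compounds for 40 hr at 37 °C in complete medium, and viable cells were measured as intracellular ATP by CellTiter-Glo luminescence. AC50 came from Hill fits, normalized to DMSO and 100 uM tamoxifen.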
# [5] = NFAT Signaling Pathway (AID 444; active = well fitted curve in either direction with a large enough effect, not every such curve was filed as active; inconclusive = small, poorly fitted or top-dose-only effect, or another doubt;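 also: carbachol stimulus at about its EC50 of 1 µM final; % is scaled to controls: 0 for no effect and ±100 for the full control effect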); conditions: Jurkat NFAT-bla M1, carbachol, beta-lactamase ratio, 5 h
# In short: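 Jurkat cells carrying an NFAT-driven β-lactamase reporter and co-transfected muscarinic M1 receptor were treated with compound plus carbachol (1 uM final, an EC50 level) for 5 h at 37 °C. CCF4 loading followed for 1 h at RT; 460/530 nm ratio gave %activity.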
# [6] = Cell Viability - N2a (AID 540); conditions: N2a mouse neuroblastoma cell viability; at 92.2 µM (top of the series);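 also: plate controls were DMSO alone for no effect and tamoxifen control for full effect; nearly all actives have a fitted effect of over 45% in size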
# In short: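 Mouse neuroblastoma N2a cells, 1500/well, exposed to compounds 40 h at 37 °C in complete medium. Viability measured as cellular ATP by CellTiter-Glo luminescence; AC50 from Hill fits of concentration-response.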
# [7] = Cell Viability - NIH 3T3 (AID 541); conditions: NIH 3T3 cell viability, qHTS; at 92.2 µM (top of the series);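 also: plate controls were DMSO alone for no effect and tamoxifen positive control for full effect; nearly all actives have a fitted effect of over 25% in size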
# In short: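 Mouse NIH 3T3 fibroblasts, 1000 cells/well, rested 5 hr at 37 °C, then exposed to compound for 40 hr at 37 °C in complete medium. Viability read as intracellular ATP by CellTiter-Glo luminescence; AC50 from Hill-equation fits of concentration-response data.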
# [8] = Cell Viability - HUV-EC-C (AID 542); conditions: HUV-EC-C endothelial cell viability, qHTS; also: potency is read from the fitted curve at half-maximal effect; nearly all actives have a fitted effect of over 35% in size
# In short: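 HUV-EC-C human vascular endothelial cells, 1000/well, exposed to compound for 40 hr at 37 °C in complete medium. Intracellular ATP was read by CellTiter-Glo luminescence. AC50 came from Hill-equation fits of concentration-response data.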
# [9] = Cell Viability - SH-SY5Y (AID 544); conditions: SH-SY5Y neuroblastoma cell viability; at 92.2 µM (top of the series); also: nearly all actives have a fitted effect of over 55% in size
# In short: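 SH-SY5Y human neuroblastoma cells (1500/well) incubated 5 h, then compound-treated 40 h at 37 °C in complete medium. Viability read as intracellular ATP by CellTiter-Glo luminescence after 20 min; AC50 from Hill-equation fits of qHTS concentration-response.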
# [10] = Cellular Toxicity (caspase-3) HepG2 (AID 654); conditions: HepG2 caspase-3 activation, luminescence; also: potency is read from the fitted curve at half-maximal effect
# In short: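 HepG2 cells (1500/well) were treated 16 h at 37 °C in complete medium, then caspase 3/7 activity was read by Caspase-Glo luminescence. Data were normalized to DMSO and 100 uM tamoxifen; AC50 came from Hill-equation fits of qHTS concentration-response.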
# [11] = Cellular Toxicity (caspase-3) Jurkat (AID 655); conditions: Jurkat caspase-3 activation, luminescence, DMSO = 0%, tamoxifen = 100%; at 92.2 µM (top of the series);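 also: cells exposed to compound for 16 h at 37 °C before reading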
# In short: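 Luminescent Caspase-Glo 3/7 read-out (20 min, room temperature) after 16 h compound treatment at 37 C of 5000 Jurkat cells per well. AC50 derived by Hill-equation fitting, scaled between DMSO basal and 100 uM tamoxifen stimulation.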
# [12] = Cellular Toxicity (caspase-3) BJ (AID 658); conditions: BJ fibroblasts, caspase-3 activation, luminescence; also: potency is read from the fitted curve at half-maximal effect
# In short: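 Luminescent aminoluciferin-substrate cleavage reports caspase 3/7 activity in normal human BJ fibroblasts after 16 hr compound exposure at 37 °C. Normalized to DMSO (basal) and 10 uM staurosporine (100%); AC50 from Hill fit of concentration-response.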
# [13] = Cellular Toxicity (caspase-3) MRC-5 (AID 659); conditions: MRC-5 cells, caspase-3 activation, luminescence; also: potency is read from the fitted curve at half-maximal effect
# In short: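 Luminescence from caspase-cleaved aminoluciferin substrate (Caspase-Glo 3/7, 1 hr RT) reports caspase 3/7 activity in MRC-5 lung fibroblasts after 16 hr compound exposure. Normalized to DMSO basal and 10 uM staurosporine as 100%; AC50 from Hill fits.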
# [14] = Cellular Toxicity (caspase-3) SK-N-SH (AID 661); conditions: SK-N-SH caspase-3 activation, qHTS; caspase-3 activation: at 91.7 µM (top of the series), DMSO as zero, staurosporine as full;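 also: 0% = DMSO basal and 100% = 10 µM staurosporine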
# In short: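 Human SK-N-SH neuroblastoma cells, 1500/well, were exposed to compounds for 16 hours at 37 °C. Caspase-Glo 3/7 luminescence was normalized to DMSO (basal) and 10 uM staurosporine (100%), and AC50 came from a Hill fit.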
# [15] = qHTS Assay for Identification of Small Molecule Antagonists for NFkB Signaling Pathway (AID 895; active = well fitted inhibition curve with a large enough effect in the signal ratio, with a control signal flat, not every such curve was filed as active; inconclusive = small, poorly fitted or top-dose-only effect, or effect the other way, or a change in a side signal; the % refers to the signal ratio; also: potency is read from the fitted curve at half-maximal effect); conditions: NFkB beta-lactamase reporter cells, FRET ratio 460/530, stimulated with 10 pM TNF alpha; activity change, negative = inhibition: at 38.3 µM (top of the series)
# In short: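 NFkB-bla ME-180 cervical carcinoma cells with beta-lactamase reporter under NFkB response element; compounds added, then TNF alpha at 10 pM final (EC50), 5 h at 37 C. LiveBLAzer substrate 2 h, room temperature; emission 460/530 nm at 405 nm excitation.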
# [16] = qHTS Assay for Identification of Small Molecule Agonists for Thrombopoietin (TPO) Signaling Pathway (AID 917); also: % is scaled to controls: 0 for no effect and ±100 for the full control effect
# In short: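 Reporter: GpIIb promoter–luciferase in murine Ba/F3 expressing human TPO receptor. Pre-starved of IL-3 overnight; compounds with 26 pM TPO, 24 hrs, 37 C/5% CO2; luminescence read.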
# [17] = qHTS Assay for Identification of Small Molecule Antagonists for Thrombopoietin (TPO) Signaling Pathway (AID 918); conditions: TPO-dependent cell signaling reporter, antagonist mode; activity change, negative = inhibition: at 38.5 µM (top of the series); also: nearly all actives have a fitted effect of over 60% in size
# In short: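 Murine Ba/F3 cells expressing human TPO receptor and a Glycoprotein IIb promoter-luciferase reporter, IL-3-starved overnight, treated with compound plus TPO at EC50 (26 pM final). After 24 h at 37 C, luminescence read to detect inhibitors.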
# [18] = Cell Viability - LYMP2-001 (AID 921); also: potency is read from the fitted curve at half-maximal effect; nearly all actives have a fitted effect of over 70% in size
# In short: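 Cellular ATP loss read by luciferase luminescence after 24 h compound exposure at 37 C in complete medium. LYMP2-001 lymphoblastoid cells, 2500/well; qHTS concentration-response data fitted with Hill equation for AC50.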
# [19] = molecular target: Muscarinic acetylcholine receptor M1 (Rattus norvegicus) (UniProt P08482); test: qHTS Assay for Antagonists of Acetylcholine Muscarinic M1 Receptor: Measurement of IP-One Response (AID 944); also: nearly all actives have a fitted effect of over 75% in size
# [20] = molecular target: Pyruvate kinase (Leishmania mexicana) (UniProt Q27686); test: qHTS Validation Assay for Inhibitors of Leishmania Mexicana Pyruvate Kinase (AID 945); also: potency is read from the fitted curve at half-maximal effect; conditions: purified L. mexicana pyruvate kinase, enzyme activity; E451W mutant enzyme
# In short: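 Luminescent ATP detection (PKLight) after a 1 h room-temperature reaction of 0.2 nM LmPYK E451W mutant with 0.5 mM PEP and 0.1 mM ADP at pH 7.2. Activity is normalized to DMSO-only control wells.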
# [21] = molecular target: Pyruvate kinase PKM (Homo sapiens) (UniProt P14618); test: qHTS Assay for Inhibitors of Human Muscle Pyruvate Kinase (AID 958); conditions: purified human PKM enzyme activity
# In short: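 Compound pinned into substrate mix (0.5 mM PEP, 0.1 mM ADP), then 0.1 nM PKM2 added; 1 h, RT. Stop/detection luciferase reagent added, luminescence read. Normalized to no-inhibition and no-enzyme or reference-inhibitor controls.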
# [22] = MultiTox-Fluor Cytotoxicity Assay - LYMP1-002 - Dead Cells (AID 960); also: potency is read from the fitted curve at half-maximal effect; nearly all actives have a fitted effect of over 60% in size
# In short: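 Human lymphoblastoid LYMP1-002 cells, 2500/well, treated 16 h at 37 C; dead-cell protease cleavage of bis-AAF-R110 read by fluorescence (485/520); normalized to DMSO and 15 uM tetraoctylammonium bromide; AC50 from Hill fit.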
# [23] = Cell Viability - LYMP1-003 - Assay at 24 hr (AID 963); also: potency is read from the fitted curve at half-maximal effect
# In short: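 Human lymphoblastoid LYMP1-003 cells, 2500/well, treated 24 h at 37 C in complete medium. Viability read as intracellular ATP by CellTiter-Glo luminescence after 30 min at room temperature; AC50 from Hill-equation fits of qHTS concentration-response.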
# [24] = Cell Viability - LYMP1-003 - Assay at 40 hr (AID 964); conditions: LYMP1-003 lymphoblastoid viability; also: potency is read from the fitted curve at half-maximal effect; nearly all actives have a fitted effect of over 60% in size
# In short: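 LYMP1-003 human lymphoblastoid cells, 2500/well, preincubated 5 h at 37 C, then treated with compound for 40 h at 37 C. Intracellular ATP read by CellTiter-Glo luminescence after 30 min at room temperature; AC50 from Hill-equation fits.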
# [25] = Cell Viability - LYMP2-017 (AID 972); also: potency is read from the fitted curve at half-maximal effect; nearly all actives have a fitted effect of over 55% in size
# In short: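 LYMP2-017 human lymphoblastoid cells (2500/well) settled 5 hr at 37 C, then exposed to compound 24 hr at 37 C in complete medium. Viability taken as intracellular ATP by CellTiter-Glo luminescence after 30 min at RT; AC50 from Hill fits.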
# [26] = Cell Viability - LYMP2-007 (AID 979); conditions: LYMP2-007 lymphoblastoid cell viability;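 also: potency is read from the fitted curve at half-maximal effect; cells exposed to compound for 24 h before reading; nearly all actives have a fitted effect of over 60% in size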
# In short: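 Human lymphoblastoid LYMP2-007 cells (2500/well) preincubated 5 h at 37 C, then treated 24 h at 37 C in complete medium. Viability by CellTiter-Glo ATP luminescence after 30 min at room temperature; AC50 from Hill fits.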
# [27] = Cell Viability - LYMP2-010 (AID 981); also: potency is read from the fitted curve at half-maximal effect; nearly all actives have a fitted effect of over 55% in size
# In short: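 Human lymphoblastoid LYMP2-010 cells (2500/well) treated 24 h at 37 C in complete medium; viability read as intracellular ATP by CellTiter-Glo luminescence. AC50 from Hill fits of concentration-response data; tetraoctylammonium bromide positive control.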
# [28] = Cell Viability - LYMP2-022 (AID 987); conditions: LYMP2-022 lymphoblastoid cell viability; also: potency is read from the fitted curve at half-maximal effect; nearly all actives have a fitted effect of over 55% in size
# In short: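 LYMP2-022 lymphoblastoid cells (2500/well, complete medium) were treated with compounds for 24 hours at 37 C; intracellular ATP was then read by CellTiter-Glo luminescence after 30 min at room temperature. AC50 values were derived from Hill-equation fits.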
# [29] = Cell Viability - LYMP1-002 - Assay at 40 hr (AID 994); conditions: LYMP1-002 lymphoblastoid cell viability
# In short: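 LYMP1-002 human lymphoblastoid cells (2500/well, complete medium) were treated with compounds for 40 hr at 37 C. Intracellular ATP was measured by CellTiter-Glo luminescence, and AC50 values came from Hill-equation fits of concentration-response data; tetraoctylammonium bromide was the positive control.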
# Tags tell the direction and shape of the fitted curve or compound fluorescence and quenching.
# Chain of UniProt Q27686 (Q27686 whole entry, looked up): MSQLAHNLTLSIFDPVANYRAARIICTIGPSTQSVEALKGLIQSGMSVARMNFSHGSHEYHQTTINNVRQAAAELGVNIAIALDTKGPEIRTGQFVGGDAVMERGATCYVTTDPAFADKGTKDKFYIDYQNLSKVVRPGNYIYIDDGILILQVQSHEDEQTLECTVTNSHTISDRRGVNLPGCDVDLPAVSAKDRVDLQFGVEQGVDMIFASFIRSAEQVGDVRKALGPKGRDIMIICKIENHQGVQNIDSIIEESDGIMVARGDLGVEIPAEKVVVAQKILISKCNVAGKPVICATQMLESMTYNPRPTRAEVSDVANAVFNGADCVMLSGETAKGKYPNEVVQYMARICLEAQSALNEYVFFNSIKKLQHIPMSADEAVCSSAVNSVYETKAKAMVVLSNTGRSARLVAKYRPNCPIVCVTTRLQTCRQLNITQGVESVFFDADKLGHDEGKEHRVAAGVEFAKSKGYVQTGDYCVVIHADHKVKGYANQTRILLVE
# Chain of UniProt P14618 (P14618 whole entry, looked up): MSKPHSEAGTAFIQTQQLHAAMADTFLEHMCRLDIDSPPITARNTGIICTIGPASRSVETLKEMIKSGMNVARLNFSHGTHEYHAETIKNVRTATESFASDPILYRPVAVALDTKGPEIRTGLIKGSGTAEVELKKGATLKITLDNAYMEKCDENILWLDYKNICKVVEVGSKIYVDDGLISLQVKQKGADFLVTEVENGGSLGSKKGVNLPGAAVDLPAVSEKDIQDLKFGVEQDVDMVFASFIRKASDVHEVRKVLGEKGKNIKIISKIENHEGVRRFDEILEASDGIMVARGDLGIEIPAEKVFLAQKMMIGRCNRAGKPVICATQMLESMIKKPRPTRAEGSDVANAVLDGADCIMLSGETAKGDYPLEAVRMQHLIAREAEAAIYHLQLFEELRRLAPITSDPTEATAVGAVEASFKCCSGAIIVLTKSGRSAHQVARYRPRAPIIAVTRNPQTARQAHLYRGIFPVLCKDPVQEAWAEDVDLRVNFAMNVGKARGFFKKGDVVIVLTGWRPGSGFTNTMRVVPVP
# Chain of UniProt P08482 (P08482 whole entry, looked up): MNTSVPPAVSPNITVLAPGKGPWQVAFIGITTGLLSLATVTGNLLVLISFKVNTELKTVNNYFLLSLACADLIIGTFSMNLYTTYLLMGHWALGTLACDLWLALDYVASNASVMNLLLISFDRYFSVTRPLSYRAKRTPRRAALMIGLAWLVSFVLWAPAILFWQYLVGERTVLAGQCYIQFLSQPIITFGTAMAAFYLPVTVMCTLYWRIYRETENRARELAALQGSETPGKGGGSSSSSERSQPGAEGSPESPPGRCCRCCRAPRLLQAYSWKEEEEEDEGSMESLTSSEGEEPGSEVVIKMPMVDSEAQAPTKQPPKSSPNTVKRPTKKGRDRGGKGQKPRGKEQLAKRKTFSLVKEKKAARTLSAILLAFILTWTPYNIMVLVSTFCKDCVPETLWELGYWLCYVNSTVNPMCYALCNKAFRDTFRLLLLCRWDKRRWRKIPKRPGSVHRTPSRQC
smiles,measurement,setting,value
Nc1nc(N)c2nc(-c3ccccc3)c(N)nc2n1,Potency,[1],inconclusive: 69.6 µM [single point]
same,Potency,[2],inconclusive: 34.4 µM [partial curve]
same,Potency,[3],inconclusive: 22.3 µM [partial curve]
same,Potency,[4],inconclusive: 77.7 µM [single point]
same,"activity change, negative = inhibition",[5]; at 17.2 µM (top of the series),inconclusive: 42.1% [activator] and inconclusive: 99.9% [activator]
same,"activity change, negative = inhibition",[5]; at 38 µM (top of the series),inconclusive: 21% [activator]
same,"activity change, negative = cytotoxicity",[6],inconclusive: -61.3%
same,"activity change, negative = cytotoxicity",[7],active: -88.4%
same,Potency,[8],"inconclusive: 79.4 µM [falling, single point]"
same,"viability change, negative = cytotoxic",[9],inconclusive: -51.3%
same,Potency,[10],"inconclusive: 79.4 µM [rising, single point]"
same,caspase-3 activation,[11],inconclusive: 34.4%
same,Potency,[12],"inconclusive: 79.4 µM [rising, single point]"
same,Potency,[13],"inconclusive: 79.4 µM [rising, single point]"
same,caspase-3 activation,[14],inconclusive: 47.2%
same,Potency,[15],"inconclusive: 0.224 µM [activator, full curve, poor fit]"
same,Potency,[16],inactive
same,"activity change, negative = inhibition",[17],inconclusive: -19.6% [phenotype inactive]
same,Potency,[18],"inconclusive: 39.8 µM [cytotoxic, partial curve, poor fit]"
same,Potency,[19],inactive
same,Potency,[20],"inconclusive: 15.8 µM [inhibitor, single point]"
same,Potency,[21],"inconclusive: 12.6 µM [inhibitor, partial curve]"
same,Potency,[22],"inconclusive: 0.0251 µM [cytotoxic, full curve, poor fit]"
same,Potency,[23],"inconclusive: 15.8 µM [cytotoxic, full curve, poor fit]"
same,Potency,[24],"inconclusive: 25.1 µM [cytotoxic, partial curve]"
same,Potency,[25],"inconclusive: 50.1 µM [cytotoxic, partial curve]"
same,Potency,[26],"inconclusive: 39.8 µM [cytotoxic, partial curve, poor fit]"
same,Potency,[27],"inconclusive: 39.8 µM [cytotoxic, partial curve]"
same,Potency,[28],"inconclusive: 39.8 µM [cytotoxic, partial curve, poor fit]"
same,Potency,[29],"inconclusive: 10 µM [cytotoxic, full curve]"
